# According to PMC12136788:
# The other results are listed elsewhere or left out.
# T1: UNK ZnF1-3 (human, UniProt Q9C0B0 31-174)
# T1 sequence: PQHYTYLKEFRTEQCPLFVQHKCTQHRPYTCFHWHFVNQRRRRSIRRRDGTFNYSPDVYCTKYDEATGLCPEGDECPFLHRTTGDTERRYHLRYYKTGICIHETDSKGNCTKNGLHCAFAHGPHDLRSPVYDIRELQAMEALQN
# B1: chr7:135612270:135612271:-_ENSG00000105887_ENST00000393085|hu_mus|hu_hu_hu_mus_False|38_38 (ssRNA)
# RNA: GGGAGUUCUACAGUCCGACGAUCGUUUUUUUCUGAGAUGUUAAAUAGUACUUCAGUGGAAAACAAAACUUAACCUUUUAUUAAUGCGUGUUGUACCAGAAAGCAAAAUUUUAGCUUCAUUUAUUCAAAAAUAUUAACAUUAAGCAACAGAGGAUUGAGCAUCA
# B2: chr10:62544473:62544474:+_ENSG00000170312_ENST00000395284|hu_mus|FALSE|FALSE (ssRNA)
# RNA: GGGAGUUCUACAGUCCGACGAUCAGUGACUCUGUGUCUACCCUUAUACACCACACCGUAAGUACCUUCUCCAAUUUUCUCUAUUUUGAUAUAGUCUUCCAUAGUUACUCAACAGGUUACGACGGACCCUCUCGUGAGCUGUUCCAACAGAGGAUUGAGCAUCA
# B3: chr3:179287964:179287965:+_ENSG00000136518_ENST00000429709|hu_hu|hu_hu_hu_mus_True|1_28 (ssRNA)
# RNA: GGGAGUUCUACAGUCCGACGAUCCUUGAGUGGUGAGAUGGCCUCCAUGUUCUCCCUGGGCACGCGGAGGGCAUUGGUGUCUAUGUAGUAGGUGGGCCCGCCCUGCUUGCCUUUAUCACCAUCAAUCUCCAUCAUUGUGCUUCCCAACAGAGGAUUGAGCAUCA
# B4: chr2:9728443:9728444:-_ENSG00000134308_ENST00000238081|hu_mus|FALSE|FALSE (ssRNA)
# RNA: GGGAGUUCUACAGUCCGACGAUCCUGCAUCUCCUUCUUGCUUAUAUCAAACGCCUCUUGGUAGGCUCCUUGGGAAUUUUCUAUUGUUUGUUUUCGAUCAUCGCCACAAGCUACUUCAGCAAGAUACCGGAAAUAAUCUCCCUUCAACAGAGGAUUGAGCAUCA
# B5: chr4:43572504:43572505:-_ENSMUSG00000028465_ENSMUST00000123985|mus_mus|FALSE|FALSE (ssRNA)
# RNA: GGGAGUUCUACAGUCCGACGAUCUCUCUCCAUUAGGUCAGUCGAAGAUGAGUCAAAGGUAUCGUCCCAGGCACAGAGAAUAGCACUAGCAAAGGUUGAGAGGCAGGAGAUCUCGGAGGAAUGCCCAGGAAAGUGAGGAGGCAACAACAGAGGAUUGAGCAUCA
# B6: chr16:94690093:94690094:+_ENSMUSG00000040785_ENSMUST00000117648|mus_hu|mus_mus_mus_hu_True|68_68 (ssRNA)
# RNA: GGGAGUUCUACAGUCCGACGAUCGGGCUGGGAUGACGGACACACAGCCUCGAUUCCAGGGGGAAAAAAAAAUAGCCGAUACUAAUUAAAAAGUGUUAAUGAUUUUUGAAAAUCAGAUUACAUCUAUAAAAGAUGAAAAGCAAACAACAGAGGAUUGAGCAUCA
# Biological target: T1, UNK ZnF1-3
# Assay: nsRBNS (natural sequence RNA bind-n-seq); RBNS binding buffer (assumed for nsRBNS): 25 mM Tris pH 7.5, 150 mM KCl, 3 mM MgCl2, 0.01% Triton X-100, 500 ug/ml BSA, 20 U/ml SUPERase-In, 4 C; UNK is unkempt and MSI1 is Musashi-1; names of the RNAs are library labels; protein concentration not given here; high values mean tight binding
row,Binder,binding signal [enrichment R]
1,B1,2.24
2,B2,0.711
3,B3,0.676
4,B4,0.939
5,B5,2.28
6,B6,1.64
